Data on 27 molecules can be found in the supplement of paper PMC10037445.

Assay [1] has as its system RAW-Dual. In words: IRF Lucia reporter activity, fold change vs agonist alone; cytotoxicity flag (confluency mask): not cytotoxic; higher = enhanced IRF activity. In a few lines:
(§1)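 RAW-Dual macrophages (50,000 cells/well in DMEM, 384-well plates) received 50 nL of library stock by pin tool, then a PRR agonist 1 h later, and were kept at 37 °C, 5% CO2. After 20 hours, supernatant was read for IRF by QuantiLuc luminescence and for NF-κB by QuantiBlue absorbance at 620 nm. Reporter activity is fold change over agonist-alone wells. Cytotoxic wells had IncuCyte confluency below 70% of agonist controls in both mask sets.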

The subject of assay [2] is RAW-Dual. In words: IRF Lucia reporter activity, fold change vs agonist alone; higher = enhanced IRF activity. Particulars: library stock concentration (final ~1000-fold dilution): 10 mM, agonist: MPLA (TLR4) […]. In a few lines: as §1
Assay [3] deals with RAW-Dual. In words: IRF Lucia reporter activity, fold change vs agonist alone; cytotoxicity flag (confluency mask): cytotoxic (confluency <70% of control); higher = enhanced IRF activity. In a few lines: as §1
Where [4] appears, read: agonist: 3'3'-cGAMP (STING) 10 ug/mL.
The mark [5] stands for this setting: cytotoxicity flag (confluency mask): not cytotoxic.

Over roughly 2,900 compounds, “IRF Lucia reporter activity, fold change vs agonist alone” has its median near 0.9; the highest 2% begin near 2.8. Some of the results follow.

For the molecule `CN(C)CCCN1c2ccccc2CCc2ccc(Cl)cc21.Cl` (library stock concentration (final ~1000-fold dilution): 10 mM), the “IRF Lucia reporter activity” value turned out to be 1.03 in assay [1] (setting [4]) and 1.11 in assay [1] (agonist: LPS (TLR4) 0.1 ug/mL).

Turning to `CN(C)CCCN1c2ccccc2CCc2ccc(Cl)cc21.Cl`, in assay [2] (setting [5]), the “IRF Lucia reporter activity” value amounted to 1.28.

For `COc1cc2nc(N3CCN(C(=O)C4COc5ccccc5O4)CC3)nc(N)c2cc1OC` (stereo not drawn) (library stock concentration (final ~1000-fold dilution): 10 mM), the “IRF Lucia reporter activity” value in assay [1] (setting [4]) was found to be 0.355; in assay [1] (agonist: LPS (TLR4) 0.1 ug/mL) it was 1.73.

In the case of `COc1cc2nc(N3CCN(C(=O)C4COc5ccccc5O4)CC3)nc(N)c2cc1OC` (stereo not drawn), in assay [2] (setting [5]), the “IRF Lucia reporter activity” value turned out to be 1.61.

As for `N#C/C(=C(/N)Sc1ccc(N)cc1)c1ccccc1C(F)(F)F`, the “IRF Lucia reporter activity” value in assay [2] (setting [5]) amounted to 2.5.

Regarding `N#C/C(=C(/N)Sc1ccc(N)cc1)c1ccccc1C(F)(F)F` (library stock concentration (final ~1000-fold dilution): 10 mM), the results for the “IRF Lucia reporter activity” value in assay [1] (setting [4]) and in assay [1] (agonist: LPS (TLR4) 0.1 ug/mL) were 0.935 and 2.34, respectively.

As for `FC(F)F.N=C(N)NCCCC1NC(=O)C(CCCCN)NC(=O)C(Cc2ccc(O)cc2)NC(=O)C(CC(=O)O)NC(=O)CNC1=O.O=C(O)C(F)(F)F.O=CO` (stereo not drawn) (library stock concentration (final ~1000-fold dilution): 10 mM), the figures for the “IRF Lucia reporter activity” value in assay [1] (setting [4]) and in assay [1] (agonist: LPS (TLR4) 0.1 ug/mL) were 1.13 and 0.737, respectively.

In the case of `N=C(N)NCCCC(N)C(=O)NCC(=O)NC(CC(=O)O)C(=O)O` (stereo not drawn) (library stock concentration (final ~1000-fold dilution): 10 mM water), the “IRF Lucia reporter activity” value came to 1.31 in assay [1] (setting [4]) and 0.942 in assay [1] (agonist: LPS (TLR4) 0.1 ug/mL).

Regarding `Cl.Fc1ccc(C2CCNCC2COc2ccc3c(c2)OCO3)cc1` (stereo not drawn), the “IRF Lucia reporter activity” value in assay [2] (setting [5]) amounted to 1.35.

As to `Cl.Fc1ccc(C2CCNCC2COc2ccc3c(c2)OCO3)cc1` (stereo not drawn) (library stock concentration (final ~1000-fold dilution): 10 mM), the figures for the “IRF Lucia reporter activity” value in assay [1] (setting [4]) and in assay [1] (agonist: LPS (TLR4) 0.1 ug/mL) were 0.928 and 1.02, respectively.

As to `CNC(=O)c1ccc(N2C(=S)N(c3ccc(C#N)c(C(F)(F)F)c3)C(=O)C2(C)C)cc1F`, in assay [2] (setting [5]), the “IRF Lucia reporter activity” value worked out at 1.18.

For the molecule `CNC(=O)c1ccc(N2C(=S)N(c3ccc(C#N)c(C(F)(F)F)c3)C(=O)C2(C)C)cc1F` (library stock concentration (final ~1000-fold dilution): 10 mM), the “IRF Lucia reporter activity” value in assay [1] (setting [4]) stood at 1.02; in assay [1] (agonist: LPS (TLR4) 0.1 ug/mL), 1.32.

With `CCCc1ccc(OCC(=O)N(Cc2nc(-c3cccnc3)no2)C(C)C)cc1` (library stock concentration (final ~1000-fold dilution): 10 mM), the “IRF Lucia reporter activity” value came out at 1.16 in assay [1] (setting [4]) and 1.41 in assay [1] (agonist: LPS (TLR4) 0.1 ug/mL).

Turning to `CCCc1ccc(OCC(=O)N(Cc2nc(-c3cccnc3)no2)C(C)C)cc1`, the “IRF Lucia reporter activity” value in assay [2] (setting [5]) was found to be 1.21.

Turning to `COc1ccc2c(OC3CC4C(=O)NC5(C(=O)NS(=O)(=O)C6CC6)CC5/C=C\CCCCN(C)C(=O)C4C3)cc(-c3nc(C(C)C)cs3)nc2c1C` (stereo not drawn), in assay [2] (setting [5]), the “IRF Lucia reporter activity” value came to 1.05.

`COc1ccc2c(OC3CC4C(=O)NC5(C(=O)NS(=O)(=O)C6CC6)CC5/C=C\CCCCN(C)C(=O)C4C3)cc(-c3nc(C(C)C)cs3)nc2c1C` (stereo not drawn) (library stock concentration (final ~1000-fold dilution): 10 mM): the results for the “IRF Lucia reporter activity” value in assay [1] (setting [4]) and in assay [1] (agonist: LPS (TLR4) 0.1 ug/mL) were 1.04 and 1.18, respectively.

On to `CC(C)(C)c1cc(NC(=O)Nc2ccc(-c3cn4c(n3)sc3cc(OCCN5CCOCC5)ccc34)cc2)no1` (library stock concentration (final ~1000-fold dilution): 10 mM), for which the “IRF Lucia reporter activity” value in assay [1] (setting [4]) stood at 0.0722; in assay [1] (agonist: LPS (TLR4) 0.1 ug/mL) it was 1.33.

For the molecule `CC(C)(C)c1cc(NC(=O)Nc2ccc(-c3cn4c(n3)sc3cc(OCCN5CCOCC5)ccc34)cc2)no1`, in assay [2] (setting [5]), the “IRF Lucia reporter activity” value was determined as 1.03.

Regarding `CN1CCN(c2ccc(-c3cccc(CN4CCOCC4)c3)cc2NC(=O)c2c[nH]c(=O)cc2C(F)(F)F)CC1` (library stock concentration (final ~1000-fold dilution): 10 mM), the “IRF Lucia reporter activity” value amounted to 1.01 in assay [1] (setting [4]) and 1.1 in assay [1] (agonist: LPS (TLR4) 0.1 ug/mL).

For the molecule `OCC1OC(O)CC(O)C1O` (stereo not drawn) (library stock concentration (final ~1000-fold dilution): 10 mM), the “IRF Lucia reporter activity” value in assay [1] (setting [4]) worked out at 1.07; in assay [1] (agonist: LPS (TLR4) 0.1 ug/mL), 0.844.

With `OCC1OC(O)CC(O)C1O` (stereo not drawn), the “IRF Lucia reporter activity” value in assay [2] (setting [5]) was 0.993.

On to `CCCCOc1c(C(=O)c2c(F)cc(C)cc2F)cnc2[nH]ncc12`, for which the “IRF Lucia reporter activity” value in assay [2] (setting [5]) worked out at 0.0699.

In the case of `CCCCOc1c(C(=O)c2c(F)cc(C)cc2F)cnc2[nH]ncc12` (library stock concentration (final ~1000-fold dilution): 10 mM), the figures for the “IRF Lucia reporter activity” value in assay [1] (setting [4]) and in assay [1] (agonist: LPS (TLR4) 0.1 ug/mL) were 0.0978 and 0.134, respectively.

For `COc1cc2nccc(Oc3ccc(NC(=O)c4cn(C(C)C)c(=O)n(-c5ccc(F)cc5)c4=O)cc3F)c2cc1OC` (library stock concentration (final ~1000-fold dilution): 10 mM), the “IRF Lucia reporter activity” value in assay [1] (setting [4]) amounted to 0.694; in assay [1] (agonist: LPS (TLR4) 0.1 ug/mL), 0.703.

For the molecule `Nc1nc2c(cnn2CCc2ccccc2)c2nc(-c3ccco3)nn12` (library stock concentration (final ~1000-fold dilution): 10 mM), the entries for the “IRF Lucia reporter activity” value in assay [1] (setting [4]) and in assay [1] (agonist: LPS (TLR4) 0.1 ug/mL) were 0.853 and 0.981, respectively.

As for `CNC(=O)c1c(F)cccc1Nc1nc(Nc2cc3c(cc2OC)CCN3C(=O)CN(C)C)nc2[nH]ccc12`, in assay [2] (cytotoxicity flag (confluency mask): cytotoxic (confluency <70% of control)), the “IRF Lucia reporter activity” value turned out to be 0.96.

As for `CNC(=O)c1c(F)cccc1Nc1nc(Nc2cc3c(cc2OC)CCN3C(=O)CN(C)C)nc2[nH]ccc12` (library stock concentration (final ~1000-fold dilution): 10 mM), the “IRF Lucia reporter activity” value in assay [3] (setting [4]) worked out at 0.723; in assay [3] (agonist: LPS (TLR4) 0.1 ug/mL) it was 0.995.
